{"source": "PubChem BioAssay AID1671193", "about": "(National Center for Advancing Translational Sciences (NCATS), 2021)", "note": "About 180 (0.12%) of roughly 150,000 compounds were called active. Inconclusive means that the source gave no clear call. Such entries were picked first, then a sample of the others. The call rests on the fitted dose curve; in most records, active means well fitted cell-killing curve with a large enough effect; inconclusive means small, poorly fitted or top-dose-only effect, or effect the other way; inactive means flat fitted curve, though single readings scatter. Potencies of inconclusive entries are doubtful fits and often do not repeat. Potency means the concentration at half of the fitted maximal effect; tags describe the fitted curve by direction and shape.", "data": [{"assay": "GF-AFC viability counterscreen for inhibitors of alpha-synuclein gene (SNCA) expression; further: nearly all actives have a fitted effect of over 30% in size;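 on activity change, negative = cytotoxicity: 0% = DMSO-treated cells and -100% = medium-only wells without cells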", "settings": "HEK-293-SNCA-luc viability, GF-AFC fluorescence, 24 h; activity change, negative = cytotoxicity: at 57.1 µM (top of the series) unless noted", "summary_of_the_method": "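Cytotoxicity counterscreen: after 24 h compound treatment of genome-edited SNCA-luciferase HEK-293 cells, live-cell protease substrate GF-AFC read by fluorescence after 30 min; activity scaled between DMSO (0%) and medium-only (-100%), curves Hill-fitted.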", "values": [{"smiles": "CS(=O)(=O)N(Cc1ccccc1)c1ccc(C(=O)Nc2ccc(Cl)cc2)cc1", "Potency": "inconclusive: 22.4 µM [cytotoxic, partial curve, poor fit]"}, {"smiles": "COc1ccc(NC(=O)CC2C(=O)N(c3cccc(OC)c3)C(=O)N2CCC2=CCCCC2)cc1", "note": "(stereo unspecified)", "Potency": "inconclusive: 31.6 µM [cytotoxic, single point]"}, {"smiles": "CC(=O)N(C1CC1)C1CCOC2(CCN(C(=O)c3ccsc3)CC2)C1", "note": "(stereo unspecified)", "Potency": "inconclusive: 31.6 µM [cytotoxic, single point]"}, {"smiles": "Cc1ccc(C(=O)NC2CCN(c3cc(-c4ccc(F)cc4)[nH]n3)CC2)cc1", "Potency": "inactive"}, {"smiles": "Cc1cccc(CN2CCNc3cc(-c4ccnc(C)c4)ncc3C2)c1", "Potency": "inconclusive: 35.5 µM [cytotoxic, single point]"}, {"smiles": "COc1ccccc1-c1ccc(C(=O)N2CCC(C(=O)NCCCc3ccccc3)CC2)cc1", "activity change, negative = cytotoxicity": "inactive: -0.0433% [at 12.5 µM]"}, {"smiles": "COC(=O)C[C@H]1C(C)(C)[C@H](OC(=O)C(C)C)C2CC3=C4CC(=O)O[C@@H](c5ccoc5)[C@]4(C)CCC3[C@@]1(C)C2=O", "note": "(stereo partly specified)", "Potency": "inconclusive: 1.64 µM [cytotoxic, full curve, poor fit]"}, {"smiles": "CCCC1N=C2c3ccccc3N=C(SCC(=O)NCCc3ccc(Cl)cc3)N2C1=O", "note": "(stereo unspecified)", "Potency": "inconclusive: 28.2 µM [cytotoxic, single point]"}, {"smiles": "CNC(=O)[C@@H]1CN(C(=O)Cc2cccc(Cl)c2)C[C@H]1CO", "Potency": "inconclusive: 0.708 µM [cytotoxic, partial curve, poor fit]"}, {"smiles": "Cc1nn(-c2ccc(C(C)C)cc2)c(C)c1[C@@H]1C=C[C@@H](NCc2ccccc2)C1", "Potency": "inconclusive: 31.6 µM [cytotoxic, single point]"}, {"smiles": "COc1ccc(NC(=O)[C@@H]2C[C@H](c3ccc(F)cc3)N(Cc3ccccc3Cl)C2)cn1", "Potency": "inconclusive: 31.6 µM [cytotoxic, partial curve]"}, {"smiles": "COc1ccc2[nH]cc(CCNc3ncncc3-c3ccccc3C)c2c1", "Potency": "inconclusive: 39.8 µM [cytotoxic, partial curve, poor fit]"}, {"smiles": "COc1ccc(C(=O)N2CCC(C(=O)N3CCC4(CC3)CC(=O)Nc3ccccc3O4)C2)cc1", "note": "(stereo unspecified)", "Potency": "inconclusive: 15.8 µM [cytotoxic, partial curve]"}, {"smiles": "Fc1ccc(-c2cc(CC3(NCc4ccccc4F)COC3)no2)cc1", "Potency": "inconclusive: 56.2 µM [cytotoxic, single point]"}, {"smiles": "O=C(C1CC1)N1CCc2cc(Br)cc(S(=O)(=O)Nc3ccc(F)c(F)c3)c21", "Potency": "inconclusive: 5.62 µM [cytotoxic, partial curve]"}, {"smiles": "Cn1cc(CN2Cc3ccc(C(=O)Nc4ccc(F)cc4)cc3OCC2=O)cn1", "Potency": "inactive"}, {"smiles": "O=C(NCCc1ccccc1)C1CCN(c2nc3ccccc3nc2C(F)(F)F)CC1", "Potency": "inactive"}, {"smiles": "COC(=O)C1=CO[C@@H](O[C@@H]2O[C@H](CO)[C@@H](O)[C@H](O)[C@H]2O)[C@H]2[C@@H]1C=C[C@]21C=C([C@H](C)OC(=O)/C=C/c2ccc(O)cc2)C(=O)O1", "Potency": "inconclusive: 6.3 µM [cytotoxic, partial curve, poor fit]"}, {"smiles": "Fc1ccccc1N1CCN(c2ncnc3onc(-c4ccc(Cl)cc4)c23)CC1", "Potency": "inconclusive: 8.91 µM [rising, full curve, poor fit]"}, {"smiles": "COc1ccc(-c2nc3cnc(N4CCNCC4)nc3n(Cc3cccc(OC)c3)c2=O)cc1", "Potency": "inconclusive: 28.2 µM [rising, partial curve]"}, {"smiles": "COCC(=O)NC1CCC12CCN(Cc1ccccn1)CC2", "note": "(stereo unspecified)", "Potency": "inconclusive: 39.8 µM [cytotoxic, single point]"}, {"smiles": "O=C1CC(c2c(F)cccc2Cl)c2c(ccc3ccccc23)N1", "note": "(stereo unspecified)", "Potency": "inconclusive: 11.2 µM [cytotoxic, partial curve, poor fit]"}, {"smiles": "O=C(CCS(=O)(=O)c1nc(-c2ccc3c(c2)OCO3)cc(C(F)(F)F)n1)Nc1ccc(Br)cc1", "Potency": "inconclusive: 39.8 µM [cytotoxic, single point]"}, {"smiles": "CCc1ccc(C(=O)N2CCCN(c3nnc4ccccn34)CC2)cc1", "Potency": "inconclusive: 0.631 µM [cytotoxic, full curve, poor fit]"}, {"smiles": "COC(=O)/C=C/C(=O)N(O)CCCCNCc1ccc(COC(=O)Nc2cccc3ccccc23)cc1", "Potency": "active: 23.8 µM"}, {"smiles": "Cc1cc(C)cc(N2C(=O)N(Cc3cc(=O)n4ccccc4n3)c3ccccc3S2(=O)=O)c1", "Potency": "inconclusive: 1.41 µM [cytotoxic, partial curve, poor fit]"}, {"smiles": "Fc1cc(-c2cccc3ncc(-c4cnn(C5CCNCC5)c4)nc23)cc(F)c1CN1CCOCC1", "Potency": "inconclusive: 18.9 µM [cytotoxic, partial curve]"}, {"smiles": "C=CCNC(=O)C(NC(=O)c1ccc(OC)cc1)C1CCN(C(=O)C2CC2)CC1", "note": "(stereo unspecified)", "Potency": "inactive"}, {"smiles": "COC(=O)N1CCc2nc(-c3ccc(Cl)cc3)nc(-c3ccccc3)c2C1", "Potency": "inconclusive: 10 µM [rising, partial curve, poor fit]"}, {"smiles": "Cc1cnc(CCNS(=O)(=O)c2cccc(F)c2)n1Cc1ccc(F)cc1", "Potency": "inactive"}, {"smiles": "COc1ccc(CNC(=O)C(CC(C)C)N2Cc3ccccc3C2=O)cc1", "note": "(stereo unspecified)", "Potency": "inconclusive: 28.2 µM [cytotoxic, partial curve, poor fit]"}, {"smiles": "Cc1ccc(C(CC(=O)N2CCc3ccccc3C2)c2cn(C)c3ccccc23)cc1", "note": "(stereo unspecified)", "Potency": "inactive"}, {"smiles": "C=CC(C)(O)CC/C=C(\\C)COC1O[C@H](CO)[C@@H](O)[C@H](O)[C@H]1O", "note": "(stereo partly specified)", "Potency": "inconclusive: 20.7 µM [rising, partial curve, poor fit]"}, {"smiles": "Cn1ccc2c(C(=O)NCc3cccnc3)nc(-c3cncnc3)cc21", "Potency": "inactive"}, {"smiles": "CN1c2cc(C(=O)N3CCN(c4ccccc4)CC3)ccc2C(=O)N2CCCCCC21", "note": "(stereo unspecified)", "activity change, negative = cytotoxicity": "inactive: -3.25% [at 12.5 µM]"}, {"smiles": "CN(C)C1CCN(C(=O)c2ccc(NC(=O)Nc3nc(N4CCOCC4)nc(N4CCOCC4)n3)cc2)CC1", "Potency": "inconclusive: 0.327 µM [cytotoxic, full curve]"}, {"smiles": "Cc1nn(C)c(C)c1CN(Cc1cnc(N2CCCCC2)nc1)C1CC1", "Potency": "inactive"}, {"smiles": "COc1ccccc1/C=C/c1nc(C#N)c(NCC(C)C)o1", "Potency": "inconclusive: 35.5 µM [rising, single point]"}, {"smiles": "CCC(CC)C(=O)NC[C@@H]1C=C(C)[C@H](Cc2nc3ccc(OC)cc3[nH]2)C[C@H]1C(C)C", "Potency": "active: 39.8 µM"}, {"smiles": "CC(C)(CC(=O)O)CC(=O)N[C@H]1C[C@H]2C(=O)Nc3ccc(-c4cccs4)cc3C(=O)N2C1", "Potency": "inactive"}, {"smiles": "COc1ccc(NC(=O)Cn2cc(C(=O)c3ccccc3OC)c(=O)c3ccc(C)nc32)cc1OC", "Potency": "inconclusive: 1.58 µM [cytotoxic, full curve, poor fit]"}, {"smiles": "COc1ccc2[nH]cc(CCNc3cc(-c4ccc(C(=O)N(C)C)cc4)ncn3)c2c1", "Potency": "inconclusive: 35.5 µM [cytotoxic, single point]"}, {"smiles": "CCOc1cccc(-c2nc(C(=O)NCc3ccc4c(c3)OCO4)cs2)c1", "Potency": "inactive"}, {"smiles": "Cc1nc2nc(C)c(NS(=O)(=O)c3ccc(CC(C)C)cc3)c(=O)n2[nH]1", "Potency": "inconclusive: 1.12 µM [rising, full curve, poor fit]"}, {"smiles": "O=C(Nc1cccc(F)c1)N1Cc2[nH]cnc2C[C@H]1c1nc(-c2ccccc2)no1", "Potency": "inactive"}, {"smiles": "COc1ccc(C(=O)N2CCc3ccc(C(=O)NCc4ccncc4)cc32)cc1", "Potency": "inconclusive: 3.98 µM [cytotoxic, full curve, poor fit]"}, {"smiles": "CCCCOc1ccccc1C1CC(=O)Nc2ccc3ccccc3c21", "note": "(stereo unspecified)", "Potency": "inconclusive: 22.4 µM [cytotoxic, partial curve, poor fit]"}, {"smiles": "COc1ccccc1CCNC(=O)Cc1c(C)c2cc(Cl)c(O)cc2oc1=O", "Potency": "inconclusive: 20 µM [rising, partial curve]"}, {"smiles": "CCCc1cc(=O)oc2c3c(ccc12)OCN(Cc1ccccc1OC)C3", "Potency": "inconclusive: 39.8 µM [rising, single point]"}, {"smiles": "CN(Cc1ccc(F)cc1)Cc1cccc2ccccc12", "Potency": "inconclusive: 5.62 µM [rising, full curve, poor fit]"}, {"smiles": "COc1cc(-c2[nH]ncc2CN(CCO)Cc2cccs2)cc(OC)c1OC", "Potency": "inconclusive: 22.4 µM [cytotoxic, partial curve, poor fit]"}, {"smiles": "COC(=O)COc1ccc(-c2nnc(Nc3ccc(O)cc3)c3ccccc23)cc1", "Potency": "inconclusive: 39.8 µM [cytotoxic, single point]"}, {"smiles": "COCCCn1c(C)cnc1C1CCN(C(=O)Nc2ccc3c(c2)OCCO3)C1", "note": "(stereo unspecified)", "Potency": "inactive"}, {"smiles": "Cc1c(CN2C[C@@H]3C(=O)N(CCCN4CCCC4=O)C(=O)[C@@H]3C2)cnn1C", "Potency": "inconclusive: 3.98 µM [cytotoxic, single point]"}, {"smiles": "Cc1ccc(CN(C(=O)c2ccc(OCC(C)C)cc2)c2ccccn2)o1", "Potency": "inconclusive: 0.282 µM [rising, full curve, poor fit]"}, {"smiles": "COc1cccc(C(=O)N2CCCCC23Cc2ccccc2NC3=O)c1", "note": "(stereo unspecified)", "Potency": "inconclusive: 28.2 µM [cytotoxic, single point]"}, {"smiles": "O=C(NCc1ccccc1Cl)C1CCCN1Cc1ccc(-c2cncnc2)cc1", "note": "(stereo unspecified)", "Potency": "inactive"}, {"smiles": "Cc1cccc(OCC(=O)c2ccc3c(c2)N(C(C)C(=O)N2CCCC2)C(=O)CO3)c1C", "note": "(stereo unspecified)", "Potency": "inactive"}, {"smiles": "CCC(C)NC(=O)c1cc(Sc2cccc(Cl)c2)nc2ccccc12", "note": "(stereo unspecified)", "Potency": "inconclusive: 0.316 µM [rising, full curve, poor fit]"}, {"smiles": "O=C(NCc1ccc(Cl)cc1)c1ccc2nnc(CC3CC3)n2c1", "Potency": "inconclusive: 17.8 µM [cytotoxic, partial curve, poor fit]"}, {"smiles": "Cc1cc(F)ccc1Nc1ncncc1-c1nc(-c2ccccc2)no1", "Potency": "inactive"}]}]}
